Experimental findings from patent publication US9974867B2, “Cytotoxic benzodiazepine derivatives” (priority 2014, dated 2018) are described below.

One assay concerns NCI-H1703 NSCLC cells. In words: In vitro cytotoxicity WST-8 assay, NCI-H1703. It counts as cell-based. The following applies: presence of excess unconjugated antibody. How it is done: (§1) The ability of huML66-sulfo-SPDB-1d conjugate to inhibit cell growth was measured using in vitro cytotoxicity assays. Target cells were plated at 1-2,000 cells per well in 100 μL in complete RPMI media (RPMI-1640, 10% fetal bovine serum, 2 mM glutamine, 1% penicillin-streptomycin, all reagents from Invitrogen). Antibodies were diluted into complete RPMI media using 3-fold dilution series and 100 μL were added per well. The final concentration typically ranged from 3×10^−8 M to 4.6×10^−12 M. Cells were incubated at 37° C. in a humidified 5% CO2 incubator for 5-6 days. Viability of remaining cells was determined by colorimetric WST-8 assay (Dojindo Molecular Technologies, Inc., Rockville, Md., US). WST-8 is reduced by dehydrogenases in living cells to an orange formazan product that is soluble in tissue culture medium. The amount of formazan produced is directly proportional to the number of living cells. […] Plates were analyzed by measuring the absorbance at 450 nm (A450) in a multiwell plate reader. Background A450 absorbance of wells with media and WST-8 only was subtracted from all values. The percent viability was calculated by dividing each treated sample value by the average value of wells with untreated cells. […] Dose-response curves were generated by non-linear regression and the EC50 value of each curve was calculated using GraphPad Prism (GraphPad software, San Diego, Calif.). […]
(In general: Tetrazolium dyes change colour on reduction, which living cells bring about.)

In another assay the test system is NCI-H292 NSCLC cells. In words: In vitro cytotoxicity WST-8 assay, NCI-H292. The assay is classed as cell-based. The note with it: presence of excess unconjugated antibody. On the procedure:
as §1

The test system of a further assay is Detroit-562 SCC-HN cells. In words: In vitro cytotoxicity WST-8 assay, Detroit-562. The assay is classed as cell-based. The note with it: presence of excess unconjugated antibody. On the procedure: as §1
The subject of assay [1] is NCI-H1703 NSCLC xenografts. In words: Antitumor activity of single dose against NCI-H1703 NSCLC xenografts (Example 11). It counts as in vivo, SCID mice. How it is done: Female CB.17 SCID mice, 6 weeks old, were received from Charles River Laboratories. Mice were inoculated with 5×10^6 NCI-H1703 tumor cells suspended in 0.2 ml 50% matrigel/serum free medium by subcutaneous injection in the right flank. When tumor volumes reached approximately 100 mm^3 (day 16 post inoculation), animals were randomized based on tumor volume into 4 groups of 6 mice each. Mice received a single IV administration of vehicle control (0.1 ml/mouse) or huML66-sulfo-SPDB-1d at 5, 20, or 50 μg/kg based on compound 1d concentration on day 1 (day 17 post inoculation).
Tumor size was measured twice to three times weekly in three dimensions using a caliper. The tumor volume was expressed in mm^3 using the formula V=Length×Width×Height×½. A mouse was considered to have a partial regression (PR) when tumor volume was reduced by 50% or greater, complete tumor regression (CR) when no palpable tumor could be detected. Tumor volume was determined by StudyLog software. Tumor growth inhibition (T/C Value) was determined using the following formula: T/C (%)=Median tumor volume of the treated/Median tumor volume of the control×100.
Tumor volume was determined simultaneously for treated (T) and the vehicle control (C) groups when tumor volume of the vehicle control reached predetermined size of 1000 mm^3. The daily median tumor volume of each treated group was determined, including tumor-free mice (0 mm^3). According to NCI standards, a T/C≤42% is the minimum level of anti-tumor activity. A T/C<10% is considered a high anti-tumor activity level.

B1: huML66-sulfo-SPDB-1d (conjugate)
heavy: QVQLQESGPGLVKPSETLSLTCTVSGLSLASNSVSWIRQPPGKGLEWMGVIWNHGGTDYNPSIKSRLSISRDTSKSQVFLKMNSLTAADTAMYFCVRKGGIYFDYWGQGVLVTVSS[human IgG1 constant region cut from this listing]
light: DTVLTQSPSLAVSPGERATISCRASESVSTLMHWYQQKPGQQPKLLIYLASHRESGVPARFSGSGSGTDFTLTIDPMEAEDTATYYCQQSRNDPWTFGQGTKLELKRTVAAPSVFIFPPSDEQLKSGTASVVCLLNNFYPREAKVQWKVDNALQSGNSQESVTEQDSKDSTYSLSSTLTLSKADYEKHKVYACEVTHQGLSSPVTKSFNRGEC
With B1, the EC50 – broadly, the concentration at which the effect is half-maximal – with NCI-H1703 NSCLC cells was roughly 1 nM; in the assay with NCI-H292 NSCLC cells, roughly 0.7 nM; in the assay with Detroit-562 SCC-HN cells, roughly 1 nM. The “anti-tumor activity level” value in assay [1] (single IV 20 μg/kg based on compound 1d) and in assay [1] (single IV 50 μg/kg based on compound 1d) was “highly active” in each case. Moreover, in assay [1] (single IV dose), the “minimal effective dose (MED)” value is 0.02 mg/kg.
